# Experimental data from PubChem BioAssay (NCATS).
# Values joined by “and” are separate entries in the source; they are usually repeats but may differ in a detail not shown here. Identical values can stand only once. Inconclusive results, whose numbers are uncertain, are shown with a selection of clear calls. A potency beside an inconclusive call is a rough fit, not a confirmed value. Where a structure was tested more than once in an assay, its records may differ in their call. Active and inactive are the calls of the source. Calls follow the shape of the dose curve; as a rule, active = well fitted cell-killing curve with a large enough effect; inconclusive = small, poorly fitted or top-dose-only effect, or effect the other way; inactive = flat fitted curve, though single readings scatter. Numbered stars: 1 amine (or outer) side, 2 acyl side, 3 side chain; on linkers, the order of the positions; unused ones are H or OH. Bridge positions count the residues as written; N and C are the ends. Square brackets hold non-standard residues; d marks the D form. Peptide text beside a SMILES is read from it. * marks the point of attachment. ξ: configuration not given here. X10 = NC1=NCCC(C(N[*:1])C(=O)[*:2])N1; ΔAla(3-NHCONH2) = NC(=O)NC=C(N)C(=O)O; ξβ3hOrn = NCCCC(N)CC(=O)*; Dap = NC[CH](N)C(=O)O
# System: SKOV3
# Experiment: Primary qHTS to identify gynecologic anti-cancer compounds using libraries of approved drugs and bioactive compounds (AID 1345084); also: nearly all actives have a fitted effect of over 55% in size
# Conditions: Gynecologic cancer cell panel viability, ATPlite luminescence, 48 h; series mostly up to 57.5 µM
# Source text: National Center for Advancing Translational Sciences [NCATS] Assay Overview: Chemotherapeutic drug responses vary from cancer to cancer and from patient to patient. These variations could be caused by a number of factors including patient genomic background, tumor mutations, tumor heterogeneity, and aspects of drug treatment. Chemotherapeutic drug resistance is also a common issue and can lead to ineffective treatment and patient death. Here we have profiled the cell killing effects of thousands of compounds to characterize the responses in three gynecological cancers, identify cancer-selective compounds, and understand the diversity of responses to these compounds from pan-cancer suppressors to single cell line selective compounds. In this assay, we screened a 7,914 compound drug library that included approved drug and bioactive compounds in six ovarian, three cervical, and […] placental cancer cell lines using the ATPlite assay for cell viability. […] The cervical cancer cell lines included HeLa, Ca Ski, and C-33 A. The placental cancer cell lines included JEG-3. HEK 293T cells were used as the control cell line to determine the selectivity index. ATPlite is a luminescence based assay reliant on the conversion of a luciferase substrate to light in the presence of ATP. As a cytotoxic compound will suppress growth and decrease the number of cells, the concentration of ATP will decrease, and less light signal will be detected in the well.
# Assay Protocol Summary: 1,000 cells in 4 uL of media were dispensed into white, solid bottom 1536-well plates using a Multidrop Combi (Thermo Scientific). The Assay plates were incubated for 16 hours at 37 C with 5% CO2 in assay plates, followed by the addition of 23 nL of DMSO or drug dissolved in DMSO. Each compound was assayed in five concentrations (0.092, 0.46, 2.3, 11.5, and 57.5 uM), using the automated Wako 1536 Pin Tool workstation and incubated at 37 C with 5% CO2 48 hours. 4 uL of ATPlite, the ATP monitoring reagent, was then added to the each well of the assay plates using the Multidrop Combi reagent dispenser followed by incubation for 15 minutes at room temperature. The resulting luminescence was measured using the ViewLux plate reader.
# Potency is read from the fitted curve at half-maximal effect; tags tell the direction and shape of the fitted curve.
row,Structure (SMILES),Potency
1,Nc1c(CC(=O)O)cccc1C(=O)c1ccc(Br)cc1,inactive
2,Nc1ccc(-c2ccc3ncc4ccc(=O)n(-c5cccc(C(F)(F)F)c5)c4c3c2)cn1,"inconclusive: 0.0891 µM [cytotoxic, full curve, poor fit]"
3,C/C(=N\O)c1ccc(OCC(=O)N2CCCCC2)cc1,"inconclusive: 39.8 µM [cytotoxic, single point]"
4,Cc1c(C)n(Cc2ccccc2)c2ccc(C(=O)OCCN(C)C)cc12,"inconclusive: 39.8 µM [cytotoxic, single point]"
5,NC(=O)N/N=C/c1ccc([N+](=O)[O-])o1,active: 14.1 µM
6,CCc1cccc(N(C)C(N)=Nc2cccc3ccccc23)c1,"inconclusive: 10 µM [cytotoxic, partial curve, poor fit]"
7,O[C@@H](COc1cccc2ncccc12)CN1CCN(C2c3ccccc3[C@@H]3[C@H](c4ccccc42)C3(F)F)CC1 (stereo not given in full),"inconclusive: 39.8 µM [cytotoxic, single point]"
8,Nc1cc(-c2ccncc2)c[nH]c1=O,"inconclusive: 39.8 µM [rising, single point]"
9,NCCCC(N)CC(=O)NCC1NC(=O)C(CO)NC(=O)C(N)CNC(=O)C(C2CCN=C(N)N2)NC(=O)C(=CNC(N)=O)NC1=O (stereo not drawn) (H-[Dap]S[Dap](ξβ3hOrn)[ΔAla(3-NHCONH2)][X10]; lactam 1-C; configuration not given here),"inconclusive: 0.0051 µM [rising, full curve, poor fit]"
10,CN(C(=O)C(Cl)Cl)c1ccc(OC(=O)c2ccco2)cc1,inactive
11,O=C1CN(/N=C/c2ccc([N+](=O)[O-])o2)C(=O)N1,active: 22.4 µM
12,CS(=O)(=O)CCNCc1ccc(-c2ccc3ncnc(Nc4ccc(OCc5cccc(F)c5)c(Cl)c4)c3c2)o1,"inconclusive: 39.8 µM [cytotoxic, single point]"
13,CCCCCCCC(=O)[O-].CCCCCCCC(=O)[O-].[Zn+2],inactive
14,CCCCCCCCCCCCCCCC(=O)NCCO,"inconclusive: 8.91 µM [cytotoxic, single point]"
15,C=CC(=O)Nc1cccc(Sc2nc(Nc3ccc(N4CCN(C)CC4)cc3)ncc2Cl)c1,"inconclusive: 31.6 µM [cytotoxic, single point]"
16,Nc1ccccc1N,active: 12.6 µM
17,CNCC[C@H](Oc1cccc2ccccc12)c1cccs1,active: 20 µM
18,Cc1ccc2c(n1)Oc1ccc(C(C)C(=O)OCC(=O)N(C)C)cc1C2 (stereo not given),"inconclusive: 22.4 µM [cytotoxic, single point]"
19,COc1ccc2cc(CCC(C)=O)ccc2c1,"inconclusive: 20 µM [cytotoxic, single point]"
20,CO[C@@]1(NC(=O)Cc2cccs2)C(=O)N2C(C(=O)O)=C(COC(N)=O)CS[C@@H]21,inactive

row,Structure (SMILES),Potency
1,O=C1c2ccccc2C(=O)c2c1ccc(O)c2O,"inconclusive: 8.91 µM [rising, single point]"
2,CC(NCCC(c1ccccc1)c1ccccc1)c1ccccc1 (stereo not given),"inconclusive: 39.8 µM [cytotoxic, single point]"
3,Cc1nc(N)sc1-c1ccnc(Nc2ccc(N3CCOCC3)cc2)n1,active: 8.91 µM
4,CC(C)(C(=O)O)c1ccc(C(O)CCCN2CCC(C(O)(c3ccccc3)c3ccccc3)CC2)cc1 (stereo not given),"inconclusive: 14.1 µM [rising, partial curve]"
5,CCCCC(CC)COC(=O)C(C#N)=C(c1ccccc1)c1ccccc1 (stereo not given),inactive
6,CCN(CC)CCOc1ccc(/C(=C(\Cl)c2ccccc2)c2ccccc2)cc1,"inconclusive: 8.91 µM [cytotoxic, full curve, poor fit] and inconclusive: 39.8 µM [cytotoxic, single point]"
7,COc1cc2c(cc1OC)CN(CCc1ccc(NC(=O)c3cc(OC)c(OC)cc3NC(=O)c3cnc4ccccc4c3)cc1)CC2,"inconclusive: 28.2 µM [cytotoxic, single point]"
8,CCN(CC)C(=S)SSC(=S)N(CC)CC,active: 631 nM and active: 1.41 µM
9,CCCC(=O)O[C@]1(C(=O)CCl)[C@@H](C)C[C@H]2[C@@H]3CCC4=CC(=O)C=C[C@]4(C)[C@@]3(F)C(=O)C[C@@]21C,"inconclusive: 39.8 µM [cytotoxic, single point]"
10,O=C(O)Cc1ccc(-c2ccccc2)cc1,inactive
11,CCCSc1ccc2nc(NC(=O)OC)[nH]c2c1,active: 2.24 µM
12,CC(C)(C)c1ccc(C(=O)CCCN2CCC(OC(c3ccccc3)c3ccccc3)CC2)cc1,"inconclusive: 39.8 µM [cytotoxic, single point]"
13,C#C[C@]1(O)CC[C@H]2[C@@H]3CCc4cc(O)ccc4[C@H]3CC[C@@]21C,active: 35.5 µM
14,COc1ccc(Cl)cc1C(=O)NCCc1ccc(S(=O)(=O)NC(=O)NC2CCCCC2)cc1,inactive
15,CN(C)c1ccc(C(=C2C=CC(=[N+](C)C)C=C2)c2ccccc2)cc1,active: 1.12 µM
16,Cc1cc(C(C)(C)C)c(O)c(C)c1CC1=NCCN1,inactive
17,O=C(O)c1cccc(-c2noc(-c3ccccc3F)n2)c1,active: 10 µM and active: 12.6 µM
18,OCc1cc(C(O)CNCCCCCCOCCCCc2ccccc2)ccc1O (stereo not given),"inconclusive: 31.6 µM [cytotoxic, single point]"
19,c1ccc2c(c1)CCc1ccccc1N2,active: 22.4 µM
20,C=C[C@H]1CN2CC[C@H]1C[C@H]2[C@H](O)c1ccnc2ccc(OC)cc12,inactive
